According to the supplement of paper PMC3334620:
Over roughly 33,000 sequences, “E-score (-0.5 to 0.5)” has its median near -0.036; the highest 2% begin near 0.37. The list shows a part of the results.

Each sequence was assayed against T1, Yer064c (UniProt P40041) (assay: PBM E-score (8-mer binding enrichment) (E-score (-0.5 to 0.5)); higher = stronger / more preferred TF binding; most listed sequences are background and not binding sites). Settings: protein concentration: 200 nM; construct: GST-full length.
T1 sequence: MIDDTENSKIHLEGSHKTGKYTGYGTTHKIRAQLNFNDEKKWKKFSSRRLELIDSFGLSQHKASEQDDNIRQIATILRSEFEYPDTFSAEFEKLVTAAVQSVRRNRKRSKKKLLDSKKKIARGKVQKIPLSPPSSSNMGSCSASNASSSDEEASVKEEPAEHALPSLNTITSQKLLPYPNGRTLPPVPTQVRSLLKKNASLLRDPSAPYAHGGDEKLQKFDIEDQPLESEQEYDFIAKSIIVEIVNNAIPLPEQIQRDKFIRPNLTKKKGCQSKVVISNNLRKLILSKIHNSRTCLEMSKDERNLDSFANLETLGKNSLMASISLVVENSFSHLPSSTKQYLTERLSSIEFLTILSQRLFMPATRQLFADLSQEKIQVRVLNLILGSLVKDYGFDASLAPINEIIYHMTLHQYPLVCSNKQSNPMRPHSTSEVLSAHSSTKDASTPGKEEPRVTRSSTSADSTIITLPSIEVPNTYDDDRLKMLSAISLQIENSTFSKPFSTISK
How it was run: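 PURExpress in vitro transcription/translation supplied GST-tagged yeast transcription factors, either full-length or DNA-binding domain. Applied at about 100-200 nM to universal all-10-mer Agilent arrays double-stranded by primer extension, the bound protein was detected with fluorescent anti-GST. E-scores, modified Wilcoxon-Mann-Whitney statistics, were given by the Universal PBM Analysis Suite to ungapped eight-base words pooled with their reverse complements after masliner normalisation.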
ACCCAACG was tested, and the “PBM E-score” value was 0.00091. For GGGTAGAA, the “PBM E-score” value was -0.161. For ATGAAATA, the “PBM E-score” value was -0.0533. CCCATTCC was tested, and the “PBM E-score” value was -0.066. With ATATGGAC the “PBM E-score” value was 0.0761. With GCAGGCCC the “PBM E-score” value was -0.336. With CTTCAACC the “PBM E-score” value was -0.0787. For AAGATTAG, the “PBM E-score” value was 0.171. In the case of AAACTCCC, the “PBM E-score” value is reported as -0.271. For ATTTTCGA, the “PBM E-score” value was 0.112. With GATGTCCC the “PBM E-score” value was -0.168. For GTGGTCTA, the “PBM E-score” value was 0.0978. GCCTTAGC was tested, and the “PBM E-score” value was -0.0881. With CCTAACCC the “PBM E-score” value was -0.134. With AACTAGAA the “PBM E-score” value was -0.161. GTCAGGAC was tested, and the “PBM E-score” value was 0.245. With ACGATGCT the “PBM E-score” value was -0.204. For ACACCGTC, the “PBM E-score” value was -0.0522. AGCGCCCG was tested, and the “PBM E-score” value was -0.316. In the case of CACGGCCC, the “PBM E-score” value is reported as -0.142. In the case of CTTGGGAA, the “PBM E-score” value is reported as 0.0531. For CTAGTAGA, the “PBM E-score” value was 0.0545. With AATAGAAC the “PBM E-score” value was 0.112. For GCGTTGAA, the “PBM E-score” value was -0.108. CAGTTGAC was tested, and the “PBM E-score” value was 0.227. With CCGCGCCA the “PBM E-score” value was -0.0972. With AACCGCGT the “PBM E-score” value was 0.0184. CACGTTCG was tested, and the “PBM E-score” value was -0.0799. For CTAGGAGA, the “PBM E-score” value was -0.0369. ATACAAAC was tested, and the “PBM E-score” value was -0.0266. CACAGGTC was tested, and the “PBM E-score” value was -0.107. For ATAGGCCG, the “PBM E-score” value was -0.319. With GTACTTAA the “PBM E-score” value was 0.123. In the case of CCCCTAAG, the “PBM E-score” value is reported as -0.13. For GAATTGGA, the “PBM E-score” value was -0.046. CGTTGCCC was tested, and the “PBM E-score” value was -0.211. In the case of CATGAACC, the “PBM E-score” value is reported as 0.0809. CACGTAGC was tested, and the “PBM E-score” value was -0.199. In the case of TTAATAAA, the “PBM E-score” value is reported as 0.234. In the case of TGACTCCA, the “PBM E-score” value is reported as 0.479. GTAATGGA was tested, and the “PBM E-score” value was 0.126. GACCATGC was tested, and the “PBM E-score” value was -0.0432. For AAGACTTC, the “PBM E-score” value was 0.241. CCGTCAGG was tested, and the “PBM E-score” value was -0.274. In the case of CCGATACG, the “PBM E-score” value is reported as -0.121. With ACTCCTGG the “PBM E-score” value was -0.00178. For GGCGCCGA, the “PBM E-score” value was -0.0673. For AACGAACA, the “PBM E-score” value was 0.0134. With AGCCTGCC the “PBM E-score” value was -0.341. With TCCAAAAA the “PBM E-score” value was 0.0763. For CAACGTCA, the “PBM E-score” value was 0.0913. GAGACCGA was tested, and the “PBM E-score” value was -0.106. AGTGACCG was tested, and the “PBM E-score” value was -0.22. In the case of ACGTCTAG, the “PBM E-score” value is reported as 0.115. For CCTGGCTC, the “PBM E-score” value was 0.0419. In the case of GCCTAGGC, the “PBM E-score” value is reported as -0.179. ACTCACGG was tested, and the “PBM E-score” value was 0.376. With CCGACGAA the “PBM E-score” value was -0.0746. In the case of ACCGTGGA, the “PBM E-score” value is reported as -0.0982. CAGTAAGA was tested, and the “PBM E-score” value was 0.106. AGTGGTGC was tested, and the “PBM E-score” value was -0.103. For ACCCCCTG, the “PBM E-score” value was -0.235. In the case of AGGTGAGC, the “PBM E-score” value is reported as -0.00638. With GCCTGACC the “PBM E-score” value was -0.125. In the case of GTCAACCA, the “PBM E-score” value is reported as 0.25. With ATGACGAC the “PBM E-score” value was 0.172. With AACCAACA the “PBM E-score” value was -0.0532. CGTTTATC was tested, and the “PBM E-score” value was 0.0192. For ATCATCCC, the “PBM E-score” value was 0.278. With CGTCATTA the “PBM E-score” value was -0.0609. In the case of ACTAAACA, the “PBM E-score” value is reported as 0.233. For ATAGTGGG, the “PBM E-score” value was -0.146. For ACCACGCG, the “PBM E-score” value was 0.0997. CGCGTGGA was tested, and the “PBM E-score” value was -0.204. GTTAGGGA was tested, and the “PBM E-score” value was -0.158. CGTGGCAG was tested, and the “PBM E-score” value was 0.07. ATAATGTC was tested, and the “PBM E-score” value was -0.115. With GCGAAAGC the “PBM E-score” value was -0.196. With AGTACAGG the “PBM E-score” value was -0.0366. AAAGAAGG was tested, and the “PBM E-score” value was -0.275. AGCATTTG was tested, and the “PBM E-score” value was -0.101. CGGCTGGC was tested, and the “PBM E-score” value was -0.13. In the case of CCGTAACA, the “PBM E-score” value is reported as -0.172. With ATTTGTCA the “PBM E-score” value was -0.115. ATGTAAGA was tested, and the “PBM E-score” value was 0.0507. ACACGACG was tested, and the “PBM E-score” value was 0.00926. ATGCACAT was tested, and the “PBM E-score” value was -0.107. ACTTCCAA was tested, and the “PBM E-score” value was 0.0955. With ACCAGGGA the “PBM E-score” value was -0.192. With CCGGGGAG the “PBM E-score” value was -0.0658. AATCAAGT was tested, and the “PBM E-score” value was 0.268. With AACTATGT the “PBM E-score” value was -0.0825. For ACTAGAAT, the “PBM E-score” value was 0.0979. ACGCGCAA was tested, and the “PBM E-score” value was -0.0453. In the case of CAAACCGC, the “PBM E-score” value is reported as -0.0599. ACCACCTG was tested, and the “PBM E-score” value was 0.0602. For GCAGTCAC, the “PBM E-score” value was 0.435. For GATAAAGA, the “PBM E-score” value was -0.119. For ACAGATTG, the “PBM E-score” value was -0.159. CACTCATA was tested, and the “PBM E-score” value was 0.259. In the case of CGATGCCA, the “PBM E-score” value is reported as -0.262. In the case of AATTGTTG, the “PBM E-score” value is reported as -0.091. With AAGGGCTC the “PBM E-score” value was -0.195. With CAAAGTAA the “PBM E-score” value was 0.0205. In the case of ACCCTTCG, the “PBM E-score” value is reported as -0.129. For ACTTCAAA, the “PBM E-score” value was 0.179. For AATTTGGA, the “PBM E-score” value was -0.0789. In the case of ACCAATGC, the “PBM E-score” value is reported as -0.0659. In the case of CGATATAA, the “PBM E-score” value is reported as -0.151. For CCGGAAAA, the “PBM E-score” value was -0.0224. For AGAATTGG, the “PBM E-score” value was -0.0862. CCATCCGG was tested, and the “PBM E-score” value was -0.146. For CTACACAG, the “PBM E-score” value was 0.15. In the case of GTAGGCAC, the “PBM E-score” value is reported as -0.307. CAAGTCGG was tested, and the “PBM E-score” value was -0.0486. ACTTTCGG was tested, and the “PBM E-score” value was -0.0323. With AACGATTC the “PBM E-score” value was 0.231. With CCGGATAG the “PBM E-score” value was -0.0554. ACCAAAAG was tested, and the “PBM E-score” value was -0.0119. GGGGCATA was tested, and the “PBM E-score” value was -0.185. For AATGCAGC, the “PBM E-score” value was -0.127. With TCATAAGA the “PBM E-score” value was 0.261. For TACATCCA, the “PBM E-score” value was -0.123. CGCGGTAC was tested, and the “PBM E-score” value was -0.129. In the case of ACCGAGTG, the “PBM E-score” value is reported as -0.0541. For TAATTTCA, the “PBM E-score” value was 0.086. AGGCTGCG was tested, and the “PBM E-score” value was -0.233. In the case of CCTGGGCC, the “PBM E-score” value is reported as -0.309. CCAGTAAA was tested, and the “PBM E-score” value was -0.242. For GACTCTAA, the “PBM E-score” value was 0.381. With TCATCCCA the “PBM E-score” value was 0.147. For AGTATTCA, the “PBM E-score” value was 0.0452. In the case of GTGGAAGA, the “PBM E-score” value is reported as 0.101. In the case of CGACCGGA, the “PBM E-score” value is reported as -0.169. For CCTTTAAG, the “PBM E-score” value was 0.0502. For ACCGGCGG, the “PBM E-score” value was -0.156. For TATTGAGA, the “PBM E-score” value was 0.168. GTAAGTCA was tested, and the “PBM E-score” value was 0.448. For ACTGGCGG, the “PBM E-score” value was 0.227. In the case of ACAGAGAA, the “PBM E-score” value is reported as -0.11. In the case of CGGCCGAC, the “PBM E-score” value is reported as 0.16. CTAGGTGC was tested, and the “PBM E-score” value was -0.254. CGAAAAAG was tested, and the “PBM E-score” value was 0.13. With ACGCCCGA the “PBM E-score” value was -0.359. ACTTCCCA was tested, and the “PBM E-score” value was -0.0249. CCTGTAAG was tested, and the “PBM E-score” value was 0.0112. For GCATCAAC, the “PBM E-score” value was -0.122. In the case of AAAATTTA, the “PBM E-score” value is reported as 0.141. With CTCGCATA the “PBM E-score” value was 0.0331. With ACTAGTCA the “PBM E-score” value was 0.456. AAGGGTTG was tested, and the “PBM E-score” value was -0.0496. With CCCGATAC the “PBM E-score” value was -0.157. With GTGCCAAA the “PBM E-score” value was -0.122. With AAGTTACC the “PBM E-score” value was 0.00671. For CTACGAAC, the “PBM E-score” value was -0.0979. For CCGGCCCA, the “PBM E-score” value was -0.364. AAATATCA was tested, and the “PBM E-score” value was -0.0552. For ATACAGAT, the “PBM E-score” value was -0.058. With TCTGAACA the “PBM E-score” value was -0.0894. With CTATTAGA the “PBM E-score” value was 0.102. CCAATAGG was tested, and the “PBM E-score” value was -0.159. ATGGTCTA was tested, and the “PBM E-score” value was 0.0765. GAAACGTC was tested, and the “PBM E-score” value was -0.263. AGAGTGAT was tested, and the “PBM E-score” value was 0.272. For GTTAATTA, the “PBM E-score” value was 0.0895. With CTTTAACA the “PBM E-score” value was -0.0802. ATGTCAGC was tested, and the “PBM E-score” value was -0.0283. In the case of ACGGTTCT, the “PBM E-score” value is reported as -0.0614. For AGCCGGGA, the “PBM E-score” value was -0.254. CTACTTTC was tested, and the “PBM E-score” value was 0.0258. With ATGTTCTC the “PBM E-score” value was -0.0875. In the case of CGCGGCGA, the “PBM E-score” value is reported as 0.0199.
